According to PubChem BioAssay (NCI):
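Each compound was tested at five concentrations against cells in 96-well plates for 48 hours. The concentration for 50% growth inhibition is given as GI50. At the TGI there is no net growth.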

System: NCI-H322M lung
Assay: inhibition of tumour cell growth, NCI panel, 48 h

Point of comparison: `CC(=C(c1ccc(OCCN2CCCCC2)cc1)c1ccc(OCCN2CCCCC2)cc1)c1ccccc1`, GI50 8.21 µM. Against it:
- COc1cc(/C=C/C(=O)c2cnn(-c3cc(=O)[nH]c4ccc(Cl)cc34)c2C)cc(OC)c1OC — 3-fold lower, 2.72 µM
- COc1cc2c(c(OC)c1OC)C(=O)CC(c1cccc(NC(=O)c3cc([N+](=O)[O-])ccc3Cl)c1)O2 (stereo not given) — 2.7-fold higher, 22 µM
- NCCCCn1c(SCCc2c[nH]c3ccccc23)nnc1-c1ccc2ccccc2n1 — within 1.5-fold, 5.87 µM
- O=C(NNc1nc2cc(C(F)(F)F)ccc2n2cccc12)c1cnccn1 — 51-fold lower, 0.162 µM

Point of comparison: `NCCCCn1c(SCCc2c[nH]c3ccccc23)nnc1-c1ccc2ccccc2n1`, TGI 12.7 µM. Against it:
- COc1cc(/C=C/C(=O)c2cnn(-c3cc(=O)[nH]c4ccc(Cl)cc34)c2C)cc(OC)c1OC — within 1.5-fold, 9.28 µM
- COc1cc2c(c(OC)c1OC)C(=O)CC(c1cccc(NC(=O)c3cc([N+](=O)[O-])ccc3Cl)c1)O2 (stereo not given) — higher, > 100 µM
- O=C(NNc1nc2cc(C(F)(F)F)ccc2n2cccc12)c1cnccn1 — 6-fold lower, 2.11 µM
- CC(=C(c1ccc(OCCN2CCCCC2)cc1)c1ccc(OCCN2CCCCC2)cc1)c1ccccc1 — higher, > 21.8 µM
